Data: article PMC8866405
These are yes or no findings as the source states them, for the method shown. In cells and extracts the contact can be indirect. Some results given as binding are weak or reduced against the parent protein; the word gives no strength. Each block holds one molecule with its values, some of them ahead of it.

The chains behind the UniProt entries cited, without tags or fusion partners.
UniProt Q12778: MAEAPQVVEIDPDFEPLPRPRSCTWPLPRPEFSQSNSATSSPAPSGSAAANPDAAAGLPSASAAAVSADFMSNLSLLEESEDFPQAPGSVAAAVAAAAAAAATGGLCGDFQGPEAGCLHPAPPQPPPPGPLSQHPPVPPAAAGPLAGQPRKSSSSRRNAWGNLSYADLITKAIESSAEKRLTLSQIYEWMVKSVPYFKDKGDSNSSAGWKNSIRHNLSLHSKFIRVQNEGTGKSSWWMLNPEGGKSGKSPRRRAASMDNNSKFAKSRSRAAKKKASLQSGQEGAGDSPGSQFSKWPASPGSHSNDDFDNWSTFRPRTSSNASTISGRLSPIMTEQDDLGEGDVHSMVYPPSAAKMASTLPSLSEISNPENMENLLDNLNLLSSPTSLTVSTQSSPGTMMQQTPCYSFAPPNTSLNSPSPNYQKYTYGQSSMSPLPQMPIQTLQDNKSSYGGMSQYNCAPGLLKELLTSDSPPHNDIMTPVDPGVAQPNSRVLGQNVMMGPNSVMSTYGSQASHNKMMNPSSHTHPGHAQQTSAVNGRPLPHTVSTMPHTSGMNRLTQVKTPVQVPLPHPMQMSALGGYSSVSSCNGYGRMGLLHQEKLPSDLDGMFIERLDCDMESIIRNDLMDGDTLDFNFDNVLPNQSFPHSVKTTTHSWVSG
UniProt Q9R1E0: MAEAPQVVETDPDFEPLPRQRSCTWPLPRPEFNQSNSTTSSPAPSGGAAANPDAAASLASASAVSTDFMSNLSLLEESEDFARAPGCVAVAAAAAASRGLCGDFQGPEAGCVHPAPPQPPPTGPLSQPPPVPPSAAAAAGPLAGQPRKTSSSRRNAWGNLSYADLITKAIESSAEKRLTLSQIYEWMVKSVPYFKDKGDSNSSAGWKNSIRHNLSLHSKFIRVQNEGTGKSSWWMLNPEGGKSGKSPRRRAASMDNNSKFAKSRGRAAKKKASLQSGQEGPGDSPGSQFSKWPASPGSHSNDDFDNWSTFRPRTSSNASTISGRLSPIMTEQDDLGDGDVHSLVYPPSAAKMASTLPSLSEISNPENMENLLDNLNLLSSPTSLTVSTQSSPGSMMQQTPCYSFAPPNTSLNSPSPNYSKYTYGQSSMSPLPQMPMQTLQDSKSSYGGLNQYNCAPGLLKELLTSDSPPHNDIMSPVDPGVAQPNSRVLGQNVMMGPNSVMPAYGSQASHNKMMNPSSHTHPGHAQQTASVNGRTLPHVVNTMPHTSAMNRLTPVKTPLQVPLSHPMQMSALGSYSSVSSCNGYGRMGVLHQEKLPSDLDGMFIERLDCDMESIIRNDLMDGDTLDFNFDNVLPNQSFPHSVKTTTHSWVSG

Assays:
[1] = biological target: V5-tagged Foxo1 (UniProt Q12778); test: co-IP; HEK293T cells transiently co-transfected with the plasmids, lysed after 48 h in IP buffer (50 mmol/L Tris-HCl pH 8.0, 150 mmol/L NaCl, 0.5% sodium deoxycholate, 1% NP-40); antibodies overnight at 4 °C, Protein A/G-agarose; 200 μg whole-cell extract; Fig. 6j with and without Kindlin-2 overexpression
[2] = biological target: Foxo1, endogenous in HepG2 cells (human (endogenous in HepG2)) (UniProt Q12778); test: co-IP; endogenous proteins in HepG2 cell lysates, IP and IB with the indicated antibodies; Fig. 6i in cells infected with lentiviruses expressing Kindlin-2 shRNA (sh-K2 #1, #2) or control shRNA (sh-NC)
[3] = biological target: V5-tagged Foxo1 overexpressed in HepG2 cells (UniProt Q12778); test: co-IP; HepG2 cells overexpressing V5-tagged Foxo1; IP with anti-V5 antibody, blot for Kindlin-2
[4] = biological target: Foxo1, endogenous in mouse liver (mouse (endogenous in liver)) (UniProt Q9R1E0); test: co-IP; protein extracts from livers of db/db and HFD-fed mice, IP and IB

binding [1]: binds
Molecule: Flag-tagged Kindlin-2, full-length (FL) (from UniProt Q96AC1 1-680)

binding [1]: binds
Molecule: Kindlin-2 with deletion of aa 1-569 (C-terminal region aa 570-680) (from UniProt Q96AC1 570-680) (domain or fragment)

binding [1]: no binding
Molecule: Kindlin-2 with deletion of aa 240-680 (from UniProt Q96AC1 1-239) (domain or fragment)

binding [1]: no binding
Molecule: Kindlin-2 with deletion of aa 570-680 (from UniProt Q96AC1 1-569) (domain or fragment)

binding [2]: binds | binding [3]: binds
Molecule: Kindlin-2, endogenous in HepG2 cells (from UniProt Q96AC1 1-680)

binding [4]: binds
B1: Kindlin-2, endogenous in mouse liver (protein, UniProt Q8CIB5 1-680)
chain: MALDGIRMPDGCYADGTWELSVHVTDLNRDVTLRVTGEVHIGGVMLKLVEKLDVKKDWSDHALWWEKKRTWLLKTHWTLDKCGIQADAKLQFTPQHKLLRLQLPNMKYVKVKVNFSDRVFKAVSDICKTFNIRHPEELSLLKKPRDPTKKKKKKLDDQSEDEALELEGPLIMPGSGSIYSSPGLYSKTMTPTYDAHDGSPLSPTSAWFGDSALSEGNPGILAVSQPVTSPEILAKMFKPQALLDKAKTNQGWLDSSRSLMEQDVKENEALLLRFKYYSFFDLNPKYDAIRINQLYEQAKWALLLEEIECTEEEMMMFAALQYHINKLSIMTSENHLNNSDKEVDEVDAALSDLEITLEGGKTSTILGDITSIPELADYIKVFKPKKLTLKGYKQYWCTFKDTSISCYKSREESSGTPAHQLNLRGCEVTPDVNISGQKFNIKLLIPVAEGMNEIWLRCDNEKQYAHWMAACRLASKGKTMADSSYNLEVQNILSFLKMQHLNPDPQLIPDQITTDVNPECLVSPRYLKKYKSKQITARILEAHQNVAQMSLIEAKMRFIQAWQSLPEFGITHFIARFQGGKREELIGIAYNRLIRMDASTGDAIKTWRFSNMKQWNVNWEIKMVTVEFADEVRLSFICTEVDCKVVHEFIGGYIFLSTRAKDQNESLDEEMFYKLTSGWV
